Source: publication PMC4336329 (PLoS ONE, 2015)
Screen size: about 310,000 compounds; about 14,000 (4.5%) showed an effect of 50% or more. Effects have a minus sign here. Some of the results follow.

biological target: human ether-à-go-go-related gene (hERG) potassium channel (human, UniProt Q12809); experiment: primary screen, population patch clamp on CHO cells stably expressing hERG
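Also: peak tail current of the secondary pulse compared with the same well before compound.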

Chain of human ether-à-go-go-related gene (hERG) potassium channel (Q12809 whole entry, looked up): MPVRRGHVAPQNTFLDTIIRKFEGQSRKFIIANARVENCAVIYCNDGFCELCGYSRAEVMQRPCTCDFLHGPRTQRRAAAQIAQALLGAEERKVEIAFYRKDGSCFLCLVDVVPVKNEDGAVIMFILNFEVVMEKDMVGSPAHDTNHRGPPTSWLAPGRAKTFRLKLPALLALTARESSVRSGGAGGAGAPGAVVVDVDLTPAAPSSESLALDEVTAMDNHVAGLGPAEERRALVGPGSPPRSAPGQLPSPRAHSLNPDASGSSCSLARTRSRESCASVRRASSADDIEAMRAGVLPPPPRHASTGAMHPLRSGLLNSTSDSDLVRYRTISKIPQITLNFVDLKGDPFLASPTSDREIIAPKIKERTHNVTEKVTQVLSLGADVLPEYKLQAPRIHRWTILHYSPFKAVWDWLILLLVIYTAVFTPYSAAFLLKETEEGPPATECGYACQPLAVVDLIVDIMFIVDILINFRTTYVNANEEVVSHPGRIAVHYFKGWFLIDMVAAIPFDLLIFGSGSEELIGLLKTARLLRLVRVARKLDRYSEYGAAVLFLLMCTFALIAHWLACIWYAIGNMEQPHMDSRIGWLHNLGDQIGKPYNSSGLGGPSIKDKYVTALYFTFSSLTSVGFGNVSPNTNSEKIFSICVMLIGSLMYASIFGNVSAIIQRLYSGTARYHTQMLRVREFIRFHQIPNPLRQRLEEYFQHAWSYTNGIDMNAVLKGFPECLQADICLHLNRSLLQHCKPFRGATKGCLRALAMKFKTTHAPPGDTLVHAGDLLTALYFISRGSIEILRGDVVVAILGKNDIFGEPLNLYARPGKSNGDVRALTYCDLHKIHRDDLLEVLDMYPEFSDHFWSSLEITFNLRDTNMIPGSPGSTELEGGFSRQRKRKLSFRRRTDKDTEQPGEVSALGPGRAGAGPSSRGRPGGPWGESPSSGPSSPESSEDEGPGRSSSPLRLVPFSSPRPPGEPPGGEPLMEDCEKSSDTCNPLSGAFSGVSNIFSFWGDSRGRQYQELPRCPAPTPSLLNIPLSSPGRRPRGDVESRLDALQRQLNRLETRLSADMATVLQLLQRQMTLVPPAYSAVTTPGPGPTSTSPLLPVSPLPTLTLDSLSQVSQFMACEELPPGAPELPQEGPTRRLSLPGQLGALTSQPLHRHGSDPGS

Compound | hERG current change (%, negative = inhibition) at 10uM [%]
Cc1ccc(-n2[nH]c(C)c(/C=N/NC(=O)c3cccc([N+](=O)[O-])c3)c2=O)cc1C | -6.6
O=c1[nH]c(=S)n(-c2ccc(Br)cc2)c2ncccc12 | 12.9
Cc1cc(C)c(C#N)c(SCS(=O)Cc2ccccc2)n1 (stereo not shown) | 14.8
COc1ccc(OCCNS(=O)(=O)c2ccccc2)cc1 | -12.8
CC(C)c1ccc(NC(=O)c2cc(S(=O)(=O)NCC3COc4ccccc4O3)ccc2F)cc1 (stereo not shown) | -1.21
CC1(C)c2ccccc2N2CC(=O)N[C@@]21/C=C/C=C/c1ccccc1 | 16.1
Cc1ccc(S(=O)(=O)N(C)CC(=O)Nc2ccc3c(c2)OCO3)cc1 | -10.7
Cc1ccccc1-c1nc(CN(Cc2c(C)nn(C)c2C)C2CC2)c(C)o1 | 5.22
CCC(CC)c1nnc(NC(=O)[C@@H](NC(=O)c2cccc(C)c2)C(C)C)s1 | 4.7
Cc1cc(=O)oc2c3c(cc(OCC(=O)NCC(=O)N[C@H](C(=O)O)C(C)C)c12)OC(C)(C)CC3 | 18.4
CC(=O)Nc1cccc(NC(=O)c2ccc3c(c2)CCN3S(C)(=O)=O)c1 | 20.2
O=C(C1CCCO1)N1CCN(c2c3c(nc4cc(-c5ccc(F)cc5)nn24)CCC3)CC1 (stereo not shown) | -10.1
CCCCCSc1nc2c(cnn2-c2ccc(F)cc2)c(=O)[nH]1 | 20
CNc1c(NS(=O)(=O)c2ccc(Cl)cc2)c(=O)oc2ccccc12 | 16
N#C/C(=C(/O)CCl)c1nc(-c2ccccc2)cs1 | 6.06
CCOc1cc(CN2CCCC(C(=O)c3cccc(C(F)(F)F)c3)C2)ccc1O (stereo not shown) | -61.2
COc1cc(/C=N\NC(=O)C(C)(C)O)ccc1OC/C=C/c1ccccc1 | 8.78
CN(Cc1cccc(C(F)(F)F)c1)C(=O)C1CCC(=O)N(CC2CCCCC2)C1 (stereo not shown) | -6.77
Cc1sc2nc(C3CC3)nc(SCC(=O)N3c4ccccc4CC3C)c2c1C (stereo not shown) | -2.09
Cc1cccc(NC(=O)Nc2ccc(C)c(C)c2)n1 | 27.4
O=C(NCCS(=O)(=O)N1CCN(c2cccc(Cl)c2)CC1)c1ccco1 | -73.8
O=c1[nH]c(SCC2CCCCO2)nc2ccccc12 (stereo not shown) | 5

Compound | hERG current change (%, negative = inhibition) at 10uM [%]
CC(C)CC(c1nnnn1C(C)C)N1CCN(c2ccccc2)CC1 (stereo not shown) | -8.55
Cc1ccc(Nc2nnc(SCC(=O)Nc3ccc(S(=O)(=O)N4CCOCC4)cc3)s2)cc1 | -30
COc1ccc(CCN2CC(C(=O)NCCc3cccnc3)CCC2=O)cc1 (stereo not shown) | 2.92
CCOc1ccc(CNC(=O)CCS(=O)(=O)c2ccc3c(c2)NC(=O)CO3)cc1OC | 27.9
COc1ccc(N2CC(C(=O)Nc3c4c(nn3-c3ccccc3)CS(=O)(=O)C4)CC2=O)cc1 (stereo not shown) | 0.77
Cc1cccc(OCCCC(=O)NNC(=O)CCN2CCN(c3ccccc3)CC2)c1 | -13.7
CCCCSc1nc2c(cnn2-c2ccccc2)c(=O)n1N | -23.9
CCCCNC(=O)c1onc(CSc2ccc(Cl)cc2)c1C(=O)NCCCC | -20.5
O=C(Nc1cccnc1)C1CCCN(S(=O)(=O)c2cccc3nsnc23)C1 (stereo not shown) | -1.77
COC(=O)c1cn(Cc2cccnc2)c(=O)c2ccccc12 | 3.15
Cc1cccc(C(=O)Nc2sc(-c3ccccc3)cc2C(=O)O)c1 | 13.1
COc1ccc(/C=C2/C(=O)NC(=O)N(c3ccc(C)c(C)c3)C2=O)cc1CN1C(=O)c2ccccc2C1=O | -11
COC(=O)Nc1ccc(S(=O)(=O)Nc2cc(OC)nc(OC)n2)cc1 | 9.41
COc1ccc(CNCCNC(=O)c2nonc2N)cc1OC.Cl | -24.8
O=C(NCc1ccccc1)C1=C[C@H](C2CCCCC2)C[C@H](OCc2ccc(CO)cc2)O1 | -1.09
O=C(CSc1nc(=O)n2ccccc2n1)OCc1ccccc1 | -22.7
O=C(CSCc1c(F)cccc1Cl)NCc1ccco1 | 5.05
O=C(CNS(=O)(=O)c1cccc(Cl)c1)OCc1csc(-c2ccccc2)n1 | 0.00998
Cc1cccc(C)c1NC(=O)CN(C)CC(=O)N(C)CC(=O)Nc1ccccc1Br | 14
O=C(NCCc1ccccc1)C1CCCN1C(=O)Nc1ccccc1 (stereo not shown) | 10.7
COc1cccc(C2CC3(CC(C)(C)NC(=S)N3)Oc3cc(O)ccc32)c1 (stereo not shown) | -12.4
CC(C)CNC(=O)c1ccc2c(c1)C(=O)N(Cc1ccco1)C2=O | -13.2

Compound | hERG current change (%, negative = inhibition) at 10uM [%]
O=C1CC(c2ccc(Cl)cc2)CC(O)=C1C=NCCO (stereo not shown) | 7.66
CCOC(=O)C1CCN(C(=O)c2sc3nc(-c4ccc(F)cc4)cn3c2C)CC1 | -60.5
CCC(C)(C)n1nnnc1C(C(C)C)N1CCC(C(N)=O)CC1 (stereo not shown) | 10.4
CCOC(=O)c1cc(NC(=O)SCC(=O)O)c(C)nc1C | -23
CN1CCCN(C(=O)c2cc(-c3cccc4ccccc34)nc3ccccc23)CC1.Cl | -59.4
Cc1nn(-c2ccc(F)cc2)c2sc(C(=O)N3CCCCCC3)cc12 | -7.19
Cc1ccc(S(=O)(=O)NCCCCC(NC(=O)OC(C)(C)C)C(=O)O)cc1.c1ccc(Nc2ccccc2)cc1 (stereo not shown) | 11.7
O=C1CSC(=Nc2cccc([N+](=O)[O-])c2)N1 | 17.1
Cl.O=C(OCCN1CCOCC1)C1(c2ccccc2)CCCC1 | 16.9
CN(CCNC(=O)C1CCN(S(=O)(=O)c2cnc[nH]2)CC1)Cc1ccccc1 | 12.6
CS(=O)(=O)N1CCN(c2ccc([N+](=O)[O-])c(NCc3ccc(Cl)cc3)c2)CC1 | 2.17
COc1cc2oc3ccccc3c(=O)c2cc1OC | -1.98
O=C(Nc1ccc(F)cc1)c1ccc(CSc2ccccc2)o1 | -6.8
COc1ccc(OC)c(C2C(C(=O)c3cccs3)=C(O)C(=O)N2c2cc(C)on2)c1 (stereo not shown) | 18.2
CN1c2ccccc2C2(C)CCCC3=Cc4cccc([N+](=O)[O-])c4OC312 (stereo not shown) | 1.57
CN(CC(=O)Nc1ccccc1C(F)(F)F)C(=O)COc1cccnc1[N+](=O)[O-] | 9.5
CN(CC(=O)Nc1ccc(Cl)cc1)C(=O)c1cc(-c2cccs2)nn1-c1ccccc1 | -5.4
O=C1C2C3C=CC(C4CC34)C2C(=O)N1/N=C/c1ccc(-c2ccc([N+](=O)[O-])cc2)o1 (stereo not shown) | 16.2
Cc1ccc(OCc2nnc(SCC(=O)c3ccccc3)n2Cc2ccco2)cc1 | -47.1
CN(C)CCCNCC(=O)NN(c1ccccc1)c1ccccc1.O=C(O)C(=O)O | -17.4
COc1ccc(C2N=C(N)N=C(N)N2c2ccccc2OC)cc1OC.Cl (stereo not shown) | -11.7
CCc1ccc(OCC(=O)Nc2nnc(-c3ccco3)s2)cc1 | 11.5

Compound | hERG current change (%, negative = inhibition) at 10uM [%]
COc1ccccc1OCC(O)CN1CCOCC1 (stereo not shown) | 15.2
O=C(c1ccc(Cl)cc1[N+](=O)[O-])N1CCOCC1 | -13.9
Cc1ccccc1NC(=O)CSc1nnc2ccc(-c3cccnc3)nn12 | -33
Cc1ccc(C23CC4CC(CC(C(=O)NCC(=O)O)(C4)C2)C3)cc1 | 4.26
O=C(CSCc1c(Cl)cccc1Cl)NN1C(=O)c2ccccc2C1=O | -21.4
C=CCN(CC=C)C(=O)C1CCN(Cc2ccc(OCc3ccccc3)cc2)CC1.O=C(O)C(=O)O | -68
CCOCCCNC(=O)N[C@@H](Cc1ccccc1)C(=O)OC | 15.3
COc1cccc2[nH]c(C(=O)NCc3ccccc3)cc12.Cl | -25.5
Cc1nc(NCCc2ccc(O)cc2)c2nnn(Cc3ccccc3)c2n1 | 0.0141
CCN(C(=O)c1cc(S(=O)(=O)N2CCOCC2)cn1C)c1cccc(C)c1 | -30.8
COc1ccc(C(=O)Cn2nnc(-c3ccccc3NC(=O)c3ccco3)n2)cc1 | 8.76
Cn1cc(S(=O)(=O)N2CCC(Cc3ccccc3)CC2)c(=O)n(C)c1=O | -11.5
COc1cc(OC)cc(C(=O)N2c3ccc(F)cc3CCC2C)c1 (stereo not shown) | -15.4
O=[N+]([O-])c1ncccc1OCc1ccc(Cl)c(Cl)c1 | 20.9
CCOC(=O)c1cnc(SCC(=O)c2ccccc2)nc1N | 15.9
O=C(c1ccccc1)c1ccc(N=Nc2c(O)[nH]c(=O)[nH]c2=O)cc1 | 1.15
O=C(CSc1nnnn1C1CCCC1)N1CCN(C(=O)c2ccco2)CC1 | -13.5
O=C(Nc1ccc2nc3n(c(=O)c2c1)CCCCC3)c1cc([N+](=O)[O-])ccc1F | -36.9
O=C(Cc1cccs1)Nc1ccc(F)c(F)c1 | 14
